Source: paper PMC4336329 (PLoS ONE, 2015)
The campaign covered roughly 310,000 compounds. About 14,000 (4.5%) showed an effect of 50% or more. The effect is printed as a negative number. The list shows a part of the results.

Each molecule was assayed against human ether-à-go-go-related gene (hERG) potassium channel (human, UniProt Q12809) (assay: primary screen, population patch clamp on CHO cells stably expressing hERG).
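Further: peak tail current of the secondary pulse compared with the same well before compound.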

Sequence of human ether-à-go-go-related gene (hERG) potassium channel (Q12809 whole entry, looked up): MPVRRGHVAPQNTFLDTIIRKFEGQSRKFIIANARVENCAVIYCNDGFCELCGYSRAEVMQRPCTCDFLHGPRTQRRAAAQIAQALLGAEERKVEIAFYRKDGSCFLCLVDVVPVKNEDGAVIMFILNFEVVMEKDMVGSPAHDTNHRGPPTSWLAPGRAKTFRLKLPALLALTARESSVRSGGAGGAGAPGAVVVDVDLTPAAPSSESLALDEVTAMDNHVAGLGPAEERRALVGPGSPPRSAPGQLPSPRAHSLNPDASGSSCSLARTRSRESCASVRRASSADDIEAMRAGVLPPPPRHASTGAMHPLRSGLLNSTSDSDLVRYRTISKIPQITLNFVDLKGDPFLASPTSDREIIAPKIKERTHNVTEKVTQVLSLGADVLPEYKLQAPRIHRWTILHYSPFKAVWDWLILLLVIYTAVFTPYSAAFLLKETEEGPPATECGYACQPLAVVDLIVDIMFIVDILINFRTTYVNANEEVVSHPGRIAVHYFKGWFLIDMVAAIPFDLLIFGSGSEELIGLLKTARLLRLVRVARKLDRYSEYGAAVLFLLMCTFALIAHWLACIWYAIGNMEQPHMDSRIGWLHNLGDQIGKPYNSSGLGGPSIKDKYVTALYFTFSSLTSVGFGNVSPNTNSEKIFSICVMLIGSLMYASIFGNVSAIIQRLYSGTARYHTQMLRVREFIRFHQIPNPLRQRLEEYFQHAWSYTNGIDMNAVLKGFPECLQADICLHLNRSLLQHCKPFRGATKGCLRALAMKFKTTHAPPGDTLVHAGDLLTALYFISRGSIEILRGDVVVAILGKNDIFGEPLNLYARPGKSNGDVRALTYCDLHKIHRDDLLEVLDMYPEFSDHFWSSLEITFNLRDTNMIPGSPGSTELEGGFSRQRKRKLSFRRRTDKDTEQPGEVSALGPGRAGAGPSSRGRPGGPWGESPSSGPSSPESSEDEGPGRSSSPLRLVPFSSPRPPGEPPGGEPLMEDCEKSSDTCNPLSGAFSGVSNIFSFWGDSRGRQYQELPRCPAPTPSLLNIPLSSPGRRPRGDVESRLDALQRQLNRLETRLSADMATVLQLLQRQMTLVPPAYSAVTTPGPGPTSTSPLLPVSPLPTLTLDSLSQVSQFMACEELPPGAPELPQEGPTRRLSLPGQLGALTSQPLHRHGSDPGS

Q: Which “hERG current change (%, negative = inhibition) at 10uM” value does the source give for `COc1ccc(CSc2nc(O)cc(=O)n2CC(C)C)cc1F` here?
A: The value was 5.11%.

Q: Which “hERG current change (%, negative = inhibition) at 10uM” value does the source give for `COc1cc(C2C(C#N)=C(C)NC3=C2C(=O)CC(C)(C)C3)cc(OC)c1O` (stereo not drawn) here?
A: The value was 7.3%.

Q: `CC(=O)Nc1cccc(NC(=O)CCNC(=O)c2ccccc2)c1` was tested. Which “hERG current change (%, negative = inhibition) at 10uM” value did it give?
A: The value was 11.2%.

Q: `O=C(NC1CCCc2c1cnn2-c1ccc(F)cc1F)c1ccccc1N1CCOCC1` (stereo not drawn) was tested. Which “hERG current change (%, negative = inhibition) at 10uM” value did it give?
A: Its value is -38.8%.

Q: Which “hERG current change (%, negative = inhibition) at 10uM” value does the source give for `COc1ccc(CNc2nc(-c3cccnc3)nn2C(=O)c2ccco2)cc1` here?
A: The value was 3.06%.

Q: How did the “hERG current change (%, negative = inhibition) at 10uM” value turn out when `Cc1ccc(NC(=O)c2cc(N3C(=O)CCC3=O)ccc2N2CCOCC2)cc1` was run?
A: The value was -22.2%.

Q: For `CCOC(=O)c1ccc(NC(=O)COc2ccccc2OC)cc1`, which “hERG current change (%, negative = inhibition) at 10uM” value is on record?
A: Its value is 2.1%.

Q: With `COc1cccc(NC(=O)NC2(C(F)(F)F)Oc3ccccc3O2)c1` as the molecule, how does the “hERG current change (%, negative = inhibition) at 10uM” value read?
A: Its value is -3.56%.

Q: How did the “hERG current change (%, negative = inhibition) at 10uM” value turn out when `CCOc1ccc(CC2C(=O)NC(=O)N(c3ccc(CC)cc3)C2=O)cc1` (stereo not drawn) was run?
A: Its value is 2.16%.

Q: `COc1cccc(/C=C2\SC(=O)N(CC(=O)NC3CCS(=O)(=O)C3)C2=O)c1` (stereo not drawn) was tested. Which “hERG current change (%, negative = inhibition) at 10uM” value did it give?
A: Its value is -3.81%.

Q: With `COc1ccc2c(c1)[nH]c1c(Cl)ncnc12` as the molecule, how does the “hERG current change (%, negative = inhibition) at 10uM” value read?
A: The value was 3.14%.

Q: `CCCCc1nc(SCCN2CCOCC2)c2c(=O)n(C)c(=O)n(C)c2n1` was tested. Which “hERG current change (%, negative = inhibition) at 10uM” value did it give?
A: Its value is -37.3%.

Q: Which “hERG current change (%, negative = inhibition) at 10uM” value does the source give for `CCCC[C@H]1COCCS(=O)(=O)N1Cc1cccc(F)c1` here?
A: Its value is -22.6%.

Q: With `Cn1c(=O)oc2cc(S(=O)(=O)Nc3ccc(F)cc3)ccc21` as the molecule, how does the “hERG current change (%, negative = inhibition) at 10uM” value read?
A: The value was 15.8%.

Q: Which “hERG current change (%, negative = inhibition) at 10uM” value does the source give for `CC1=C(C(=O)OCC2CCCO2)C(c2ccccc2)C2=C(CC(C)(C)CC2=O)N1` (stereo not drawn) here?
A: The value was 5.9%.

Q: With `Cc1oc2c(c1C(=O)N1CCOCC1)C(=O)c1ccccc1C2=O` as the molecule, how does the “hERG current change (%, negative = inhibition) at 10uM” value read?
A: The value was 5.25%.

Q: `COC(=O)Cn1c(O)c(N=NC(=O)CNC(=O)c2ccc3c(c2)OCCO3)c2ccccc21` was tested. Which “hERG current change (%, negative = inhibition) at 10uM” value did it give?
A: Its value is 3.62%.

Q: How did the “hERG current change (%, negative = inhibition) at 10uM” value turn out when `CCN(c1ccccc1)S(=O)(=O)c1nnc(NC(=O)CC(C)C)s1` was run?
A: The value was 2.43%.

Q: With `Cc1ccc2oc(=O)c3cnn(CC(=O)N4CCN(c5ccccn5)CC4)c3c2c1` as the molecule, how does the “hERG current change (%, negative = inhibition) at 10uM” value read?
A: The value was -27.6%.

Q: Which “hERG current change (%, negative = inhibition) at 10uM” value does the source give for `O=S(=O)(c1ccc2nc(N3CCN(c4ccccc4)CC3)ccc2c1)N1CCCCC1` here?
A: Its value is 19.4%.

Q: For `O=C(Nc1ccncc1)Nc1cccc(Cl)c1`, which “hERG current change (%, negative = inhibition) at 10uM” value is on record?
A: Its value is -16.1%.

Q: For `COc1ccc(-c2cn(-c3ccc(OC)cc3)c(=S)[nH]2)cc1`, which “hERG current change (%, negative = inhibition) at 10uM” value is on record?
A: The value was 16.3%.

Q: For `Cc1c(Cl)ccc2c(C(=O)Nc3cc(C(C)(C)C)on3)cc(-c3ccccn3)nc12`, which “hERG current change (%, negative = inhibition) at 10uM” value is on record?
A: Its value is 5.13%.

Q: Which “hERG current change (%, negative = inhibition) at 10uM” value does the source give for `CSc1nncc(/C(C)=N\Nc2ccccc2)n1` here?
A: Its value is 9.18%.
